# pIC50: −log10 of the molar value. A lower IC50 marks a more sensitive line; fits outside the tested doses are given as limits. For AUC the same curve is integrated over the 256-fold range of doses and scaled to a fraction; values near 1 show little effect. Any top dose called inferred was derived from the fitted curves, not read from the paper.
# Compound: Cn1cc(C2=C(c3cn(C4CCN(Cc5ccccn5)CC4)c4ccccc34)C(=O)NC2=O)c2ccccc21 [LY317615]
# Experiment: Viability of human cancer cell lines after 72 h of drug (GDSC screen)
# Conditions: top dose inferred
# Method: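 Human cancer cell lines in 384-well plates, medium with 10% serum, drug for 72 h over a 256-fold dose range (nine 2-fold or five 4-fold steps up to the top dose). Adherent lines were fixed and stained with the nucleic acid dye Syto60, suspension lines read with resazurin; signal relative to control wells, capped at 0 and 100%. One two-parameter sigmoid per drug and line, fitted in a mixed model over all curves with the slope shared within a line.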
Cell Line,AUC,pIC50
"A375 (melanoma, adherent, top dose 20 µM)",0.922,< 4.70
"NALM-6 (B-cell leukaemia, suspension, top dose 20 µM)",0.53,5.83
"PANC-04-03 (pancreas, adherent, top dose 20 µM)",0.564,5.68
"IGR-1 (melanoma, adherent, top dose 20 µM)",0.806,5.06
"PL18 (pancreas, adherent, top dose 20 µM)",0.985,< 4.70
"COLO-824 (breast, adherent, top dose 20 µM)",0.941,< 4.70
"LS-1034 (large intestine, adherent, top dose 20 µM)",0.721,5.24
"CA46 (Burkitt lymphoma, suspension, top dose 20 µM)",0.681,5.38
"OACM5-1 (oesophagus, semi-adherent, top dose 20 µM)",0.471,5.99
"NB17 (neuroblastoma, adherent, top dose 20 µM)",0.984,< 4.70
"TE-8 (oesophagus, adherent, top dose 20 µM)",0.942,< 4.70
"JAR (urogenital system, adherent, top dose 20 µM)",0.844,4.86
"ES6 (Ewing sarcoma, adherent, top dose 20 µM)",0.871,< 4.70
"EVSA-T (breast, adherent, top dose 20 µM)",0.975,< 4.70
"WM278 (melanoma, adherent, top dose 20 µM)",0.727,5.22
"NK-92MI (lymphoid neoplasm, suspension, top dose 20 µM)",0.893,< 4.70
"CCF-STTG1 (glioma, adherent, top dose 20 µM)",0.979,< 4.70
"VMRC-MELG (melanoma, adherent, top dose 20 µM)",0.989,< 4.70
"HOP-62 (lung adenocarcinoma, adherent, top dose 20 µM)",0.706,5.32
"RH-18 (rhabdomyosarcoma, adherent, top dose 20 µM)",0.985,< 4.70
"SW1088 (glioma, adherent, top dose 20 µM)",0.916,< 4.70

Cell Line,AUC,pIC50
"NCI-H2196 (small cell lung carcinoma, adherent, top dose 20 µM)",0.969,< 4.70
"NCI-H727 (lung carcinoid, adherent, top dose 20 µM)",0.623,5.47
"MZ2-MEL (melanoma, adherent, top dose 20 µM)",0.85,4.71
"PANC-10-05 (pancreas, adherent, top dose 20 µM)",0.698,5.27
"TE-15 (oesophagus, suspension, top dose 20 µM)",0.572,5.69
"NCI-H28 (mesothelioma, adherent, top dose 20 µM)",0.917,< 4.70
"JVM-3 (lymphoid neoplasm, suspension, top dose 20 µM)",0.785,5.06
"KP-4 (pancreas, adherent, top dose 20 µM)",0.896,< 4.70
"TCCSUP (bladder, adherent, top dose 20 µM)",0.981,< 4.70
"D-263MG (glioma, adherent, top dose 20 µM)",0.972,< 4.70
"KASUMI-1 (acute myeloid leukaemia, suspension, top dose 20 µM)",0.493,5.92
"KYSE-220 (oesophagus, adherent, top dose 20 µM)",0.982,< 4.70
"SISO (cervix, adherent, top dose 20 µM)",0.88,4.72
"CAL-78 (chondrosarcoma, adherent, top dose 20 µM)",0.986,< 4.70
"C3A (liver, adherent, top dose 20 µM)",0.988,< 4.70
"DBTRG-05MG (glioma, adherent, top dose 20 µM)",0.896,< 4.70
"HN (head and neck, adherent, top dose 20 µM)",0.983,< 4.70
"SBC-3 (small cell lung carcinoma, adherent, top dose 20 µM)",0.882,4.75
"MONO-MAC-6 (acute myeloid leukaemia, suspension, top dose 20 µM)",0.726,5.24
"HT-1197 (bladder, adherent, top dose 20 µM)",0.981,< 4.70
"NCI-H1092 (small cell lung carcinoma, suspension, top dose 20 µM)",0.942,< 4.70

Cell Line,AUC,pIC50
"LB647-SCLC (small cell lung carcinoma, semi-adherent, top dose 20 µM)",0.85,4.74
"RCC-AB (kidney, adherent, top dose 20 µM)",0.489,5.94
"TE-1 (oesophagus, adherent, top dose 20 µM)",0.905,< 4.70
"H290 (mesothelioma, adherent, top dose 20 µM)",0.948,< 4.70
"PCI-4B (head and neck, adherent, top dose 20 µM)",0.854,4.84
"NB14 (neuroblastoma, adherent, top dose 20 µM)",0.973,< 4.70
"COR-L303 (small cell lung carcinoma, suspension, top dose 20 µM)",0.8,5.03
"COLO-684 (endometrium, suspension, top dose 20 µM)",0.807,4.93
"NY (osteosarcoma, adherent, top dose 20 µM)",0.988,< 4.70
"KU-19-19 (bladder, adherent, top dose 20 µM)",0.962,< 4.70
"LB1047-RCC (kidney, adherent, top dose 20 µM)",0.552,5.75
"NB5 (neuroblastoma, adherent, top dose 20 µM)",0.973,< 4.70
"ROS-50 (B-cell leukaemia, suspension, top dose 20 µM)",0.938,< 4.70
"NCI-H2122 (lung adenocarcinoma, adherent, top dose 20 µM)",0.894,< 4.70
"22RV1 (prostate, adherent, top dose 20 µM)",0.874,< 4.70
"Caov-4 (ovary, adherent, top dose 20 µM)",0.612,5.53
"KM12 (large intestine, adherent, top dose 20 µM)",0.886,< 4.70
"COLO-680N (oesophagus, adherent, top dose 20 µM)",0.798,4.94
"EC-GI-10 (oesophagus, adherent, top dose 20 µM)",0.989,< 4.70
"MKN45 (stomach, adherent, top dose 20 µM)",0.449,6.06
"SW1463 (large intestine, adherent, top dose 20 µM)",0.725,5.05

Cell Line,AUC,pIC50
"TE-6 (oesophagus, adherent, top dose 20 µM)",0.96,< 4.70
"TE-5 (oesophagus, adherent, top dose 20 µM)",0.982,< 4.70
"LCLC-97TM1 (large cell lung carcinoma, adherent, top dose 20 µM)",0.851,4.75
"OVCAR-4 (ovary, adherent, top dose 20 µM)",0.75,5.02
"KARPAS-45 (lymphoblastic leukaemia, suspension, top dose 20 µM)",0.547,5.79
"NCI-H1694 (small cell lung carcinoma, suspension, top dose 20 µM)",0.983,< 4.70
"WIL2-NS (lymphoid neoplasm, suspension, top dose 20 µM)",0.535,5.82
"NCI-H2141 (small cell lung carcinoma, suspension, top dose 20 µM)",0.97,< 4.70
"MDA-MB-468 (breast, adherent, top dose 20 µM)",0.941,< 4.70
"DG-75 (Burkitt lymphoma, suspension, top dose 20 µM)",0.845,4.83
"BxPC-3 (pancreas, adherent, top dose 20 µM)",0.687,5.35
"LU-135 (small cell lung carcinoma, suspension, top dose 20 µM)",0.898,4.76
"NCI-H1836 (small cell lung carcinoma, suspension, top dose 20 µM)",0.961,< 4.70
"NCI-H1869 (lung squamous cell carcinoma, adherent, top dose 20 µM)",0.607,5.59
"PL-21 (acute myeloid leukaemia, suspension, top dose 20 µM)",0.726,5.21
"TK (B-cell lymphoma, suspension, top dose 20 µM)",0.831,4.95
"RMG-I (ovary, adherent, top dose 20 µM)",0.931,< 4.70
"MDA-MB-453 (breast, adherent, top dose 20 µM)",0.605,5.60
